Literature values in article PMC11181328 (Journal of Medicinal Chemistry, 2024).

Settings: same conditions; cited from earlier work

## CN(C(=O)/C=C/c1ccoc1)[C@H]1CC[C@@]2(O)[C@H]3Cc4ccc(O)c5c4[C@@]2(CCN3CC2CC2)[C@H]1O5.Cl [NMF]
  half-life in human liver S9 fraction: over 60 min
